Test results reported in PubChem BioAssay AID1345082 (National Center for Advancing Translational Sciences (NCATS), 2018).
The campaign covered roughly 94,000 compounds. About 4,000 (4.3%) were called active. The shares of active, inactive and inconclusive entries below differ from those in the screen. Calls come from the whole dose curve; as a rule, active = well fitted inhibition curve with a large enough effect; inconclusive = small, poorly fitted or top-dose-only effect; inactive = no such curve, though single readings can be large or run the other way. A potency beside an inconclusive call is a rough fit, not a confirmed value.

Experiment: Cytotoxic Profiling in NIH 3T3 Cell Line of Diverse Libraries Using Quantitative High-Throughput Screening; note: nearly all actives have a fitted effect of over 55% in size
Details: NIH 3T3 viability, CellTiter-Glo ATP luminescence, 48-72 h; series mostly up to 96.7 µM; activity change, negative = cytotoxicity: at the top concentration
Summary of the method: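 Cytotoxicity is measured as loss of cellular ATP: NIH 3T3 cells (400/well) are exposed to compound for 48 or 72 hr at 37 °C, then CellTiter-Glo luminescence is imaged after 10 min at room temperature.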
% is set by controls: 0 for no effect and ±100 for the full control effect; potency is the fitted concentration of half-maximal effect; tags give direction and shape of the fitted curve.

Structure (SMILES)	Potency	activity change, negative = cytotoxicity	outcome
Cc1noc(C)c1S(=O)(=O)N1[C@H]2CC[C@@H]1c1cnc(-c3ccc(F)cc3)nc1C2	inconclusive: 35.5 µM [inhibitor, partial curve]		
CCC1(N2CCN(C(=O)COc3ccc(Cl)cc3C)CC2)CCN(C(=O)NC)C1 (stereo unspecified)	inconclusive: 70.8 µM [inhibitor, partial curve, poor fit]		
Cc1ccc(CN2CCC3(CCNCC3)C2)c(O)c1	inconclusive: 50.1 µM [inhibitor, partial curve, poor fit]		
Cc1ccc2c(n1)N(C)[C@H](CO)CCN(CCC(C)C)C2	inconclusive: 126 µM [inhibitor, partial curve]		
COc1cc2c(cc1OCc1ccccc1)NC(=O)C21CCN(c2cnccn2)CC1	active: 79.4 µM		
COc1cc2c(cc1OCc1ccccc1)NC(=O)C21CCN(Cc2ccncc2)CC1	inconclusive: 50.1 µM [inhibitor, partial curve, poor fit]		
O=C1NCCCCCN[C@H]2CCC[C@@H]12		inactive: -13%	
Cc1nc(-c2ccccc2)cc([C@H]2CN3CC[C@H]2C[C@@H]3CNC(=O)C2CCC2)n1	inconclusive: 89.1 µM [inhibitor, partial curve]		
COc1cc2c(cc1OCc1ccccc1)N([S+](=O)([O-])c1cccc3cccnc13)CC21CCN(C)CC1	active: 17.8 µM		
C#C[C@H]1CN2CC[C@H]1C[C@@H]2CNC(=O)C1CCCCC1	inconclusive: 100 µM [inhibitor, partial curve, poor fit]		
COc1ncc(-c2cnc3[nH]cc(CC(=O)N4CCN(C)CC4)c3c2)cn1	inconclusive: 39.8 µM [inhibitor, full curve]		
CCOC(=O)[C@H]1CN(C(=O)/C=C/c2ccccc2)[C@]2(C)C(=O)N(C)c3ccccc3[C@H]12		inactive: -19.6% [at 46.1 µM]	
CC(C)c1nccn1C(C)C(=O)N1CCC(C#N)(c2ccccc2)CC1 (stereo unspecified)	inconclusive: 63.1 µM [inhibitor, partial curve, poor fit]		
COc1ccc(-c2cc([C@H]3CN4CC[C@H]3C[C@@H]4CNC(=O)c3cccs3)n(C)n2)cc1OC	inconclusive: 56.2 µM [inhibitor, partial curve, poor fit]		
CCCCN1CCC2(COC(=O)N2c2ccncc2)C1 (stereo unspecified)	inconclusive: 39.8 µM [inhibitor, full curve]		
COc1ccc(-c2cc3c(cn2)CN(C)CCN3)cn1	inconclusive: 79.4 µM [inhibitor, partial curve, poor fit]		
COc1cccc([C@@H]2CCN(Cc3cccc4nsnc34)C[C@H]2O)c1		inactive: -21.2%	
O=C(O)C1=NOC2CN(Cc3cncs3)CC12 (stereo unspecified)			inactive [at 138 µM]
CN(C)c1ccc(C(=O)NC[C@H]2C[C@@H]3CCN2C[C@@H]3CN2CCc3ccccc3C2)cc1	active: 31.6 µM		
O=C(NCc1ccc2c(c1)OCO2)[C@H]1CN2CCC1C[C@@H]2Cn1cc(CC2CCCCC2)nn1 (stereo partly specified)	inconclusive: 89.1 µM [inhibitor, partial curve, poor fit]		
Cn1cccc1CN1CCCC2(CC(c3cccnc3)=NO2)C1 (stereo unspecified)		inactive: 3.36%	
C#C[C@H]1CN2CC[C@H]1C[C@@H]2COC(=O)Nc1cc(OC)cc(OC)c1	inconclusive: 70.8 µM [inhibitor, partial curve, poor fit]		

Structure (SMILES)	Potency	activity change, negative = cytotoxicity	outcome
Cc1nc(-c2ccco2)cc([C@H]2CN3CC[C@H]2C[C@@H]3CNC(=O)c2cccs2)n1		inactive: -24.8% [at 138 µM]	
COc1ccc(C(=O)NC[C@H]2C[C@@H]3CCN2C[C@@H]3c2cc(C3CCCCC3)nn2C)cc1	inconclusive: 56.2 µM [inhibitor, partial curve, poor fit]		
Cc1cc(C)cc(CN2CCC3(CCNCC3)C2)c1	inconclusive: 50.1 µM [inhibitor, partial curve, poor fit]		
COc1cc2c(cc1Oc1ccccc1)NC(=O)C21CCN(Cc2ccccc2)CC1	active: 28.2 µM		
COCCC(=O)N1CCC2(CC1)c1nccn1-c1ccccc1CN2CC(C)C			inactive
COc1cc2c(cc1CCc1ccccc1)N(C(=O)c1ccn(C)n1)CC21CCN(C(C)=O)CC1	inconclusive: 50.1 µM [inhibitor, partial curve, poor fit]		
CCC(CC)c1cc([C@H]2CN3CC[C@H]2C[C@@H]3CNC2CCN(C)CC2)nc(-c2ccncc2)n1	active: 17.8 µM		
O=C1NC2(CCCN(Cc3ccncc3)C2)COc2ccccc21 (stereo unspecified)	active: 31.6 µM		
O=C(Cc1ccc(CO)cc1)N1CCN(Cc2cn[nH]n2)CC(O)C1 (stereo unspecified)		inactive: -12.7%	
CCN(CC)C[C@H]1CN2CC[C@H]1C[C@@H]2CNC(=O)Nc1cccc(SC)c1	active: 39.8 µM		
COc1ccccc1N1CCN(C[C@H]2CN3CC[C@H]2C[C@@H]3CNC(=O)Nc2cccc(SC)c2)CC1	inconclusive: 79.4 µM [inhibitor, partial curve, poor fit]		
O=C(c1cnccn1)N1C[C@@H]2C[C@H](C1)c1c(-c3ccccc3)ccc(=O)n1C2		inactive: -2.2% [at 174 µM]	
C#C[C@H]1CN2CC[C@H]1C[C@@H]2CNC(=O)Nc1cccc(SC)c1	inconclusive: 126 µM [inhibitor, single point]		
O=C(NCc1ccc(F)cc1)[C@H]1CN2CC[C@H]1C[C@@H]2Cn1cc(-c2ccccc2)nn1	inconclusive: 126 µM [inhibitor, partial curve, poor fit]		
CCOC(=O)[C@H]1CN(C(=O)OCC)[C@]2(C)C(=O)N(CCOC(C)=O)c3ccccc3[C@H]12	inconclusive: 35.5 µM [inhibitor, partial curve, poor fit]		
COc1ccc(C2=NOC3(CCN(Cc4cccnc4)C3)C2)cc1 (stereo unspecified)	inconclusive: 44.7 µM [inhibitor, partial curve]		
CC(=O)c1ccc(NC(=O)NC[C@H]2C[C@@H]3CCN2C[C@@H]3c2cc(-c3cccs3)nc(C)n2)cc1	inconclusive: 89.1 µM [inhibitor, single point]		
O=[S+]1([O-])NCC2(CCN(Cc3ccoc3)C2)Oc2ncccc21 (stereo unspecified)			inactive
CC[C@H]1CN2CC[C@H]1C[C@@H]2CNS(=O)(=O)c1cccs1		inactive: 1.35% [at 174 µM]	
CCOC(=O)CCNC(=O)N1[C@H]2CC[C@@H]1c1cnc(-c3ccccc3)nc1C2		inactive: -14.8%	
CN1CC2(C1)C(=O)N(C)C(=O)[C@@H]1C[C@@H](O)CN12		inactive: 0.48% [at 230 µM]	
C=C[C@H]1CN2CC[C@H]1C[C@@H]2CNC(=O)Nc1cccc(C(F)(F)F)c1	inconclusive: 100 µM [inhibitor, partial curve, poor fit]		

Structure (SMILES)	Potency	activity change, negative = cytotoxicity	outcome
COc1cc2c(cc1OCc1ccccc1)NC(=O)C21CCN(Cc2nccn2C)CC1	inconclusive: 89.1 µM [inhibitor, single point]		
COc1cc2c(cc1OC1CCCC1)NC(=O)C21CCN(c2ncc(C(C)C)cn2)CC1	inconclusive: 56.2 µM [inhibitor, partial curve, poor fit]		
Cn1cc(CN2CCOC[C@H](O)C2)c2ccccc21	active: 89.1 µM		
O=[N+]([O-])c1ccc(N2CC3CCC(C2)N3CC(F)(F)F)nc1			inactive
CC(C)(C)CN1CCC2(CN[S+](=O)([O-])c3cccnc3O2)C1 (stereo unspecified)			inactive
C=C[C@H]1CN2CC[C@H]1C[C@@H]2CNS(=O)(=O)c1cccc(F)c1			inactive [at 174 µM]
O=C(Nc1ccccc1)N1[C@H]2CC[C@@H]1c1cncnc1C2			inactive
COc1cc2c(cc1OCc1ccccc1)NC(=O)C21CCN(CC2CC2)CC1	active: 31.6 µM		
CCOC(=O)[C@@H]1[C@H]2c3ccccc3N(CCOC)C(=O)[C@H]2N(C(=O)C2CCC2)[C@@H]1c1ccccc1	inconclusive: 44.7 µM [inhibitor, partial curve, poor fit]		
COCCN1C[C@H]2CN(CC3CC3)CCN2C1=O		inactive: -5.04% [at 230 µM]	
O=S(=O)(NC[C@H]1C[C@@H]2CCN1C[C@@H]2CN1CCc2ccccc21)c1ccc(Cl)cc1	active: 28.2 µM		
O=C(CCc1ccccc1)N1[C@H]2CC[C@@H]1c1cnc(-c3ccc(F)cc3)nc1C2	inconclusive: 31.6 µM [inhibitor, partial curve, poor fit]		
CCOC(=O)[C@H]1CN(C(=O)c2ccc(SC)cc2)[C@]2(C)C(=O)N(C)c3ccccc3[C@H]12		inactive: -26.6% [at 46.1 µM]	
C#CCN(C)C[C@H]1CN2CC[C@H]1C[C@@H]2CNC(=O)Nc1ccc(C(C)=O)cc1		inactive: -16.8% [at 174 µM]	
O=C(Nc1cccc(C(F)(F)F)c1)OC[C@H]1C[C@@H]2CCN1C[C@@H]2c1cc(C2CCCC2)nc(-c2ccncc2)n1	inconclusive: 63.1 µM [inhibitor, partial curve, poor fit]		
Cc1nc(-c2ccc(N(C)C)cc2)cc([C@H]2CN3CC[C@H]2C[C@@H]3CNC(=O)c2ccccc2)n1	active: 44.7 µM		
CCOC(=O)[C@H]1CN(C(=O)C2CCCC2)[C@]2(C)C(=O)Nc3ccccc3[C@H]12		inactive: -16.9% [at 46.1 µM]	
COc1cccc(-c2cnc3[nH]cc(CC(=O)N4CCN(C)CC4)c3c2)c1	inconclusive: 100 µM [inhibitor, partial curve]		
Cn1nc(-c2ccccc2)cc1[C@H]1CN2CC[C@H]1C[C@@H]2CNS(=O)(=O)Cc1ccccc1	active: 79.4 µM		
Cc1nc(-c2cccs2)cc([C@H]2CN3CC[C@H]2C[C@@H]3CNC(=O)C2CCC2)n1	inconclusive: 112 µM [inhibitor, partial curve, poor fit]		
COc1ccccc1-c1cc([C@H]2CN3CC[C@H]2C[C@@H]3COC(=O)Nc2ccccc2)n(C)n1	inconclusive: 31.6 µM [inhibitor, full curve, poor fit]		
O=C1NC2(CCN(Cc3ccncc3)C2)OCc2ccccc21 (stereo unspecified)		inactive: -20.3% [at 138 µM]	
